The nature of this data set: xn = mol fraction of the nth substance listed. The conditions noted are these: 298.15 K, 100 kPa.

A word on the mass density: it is the mass of a sample divided by its volume.

SMILES strings stand for the structures. Some of these densities may be calculated back from excess volumes.

Consider `CCCCCC` + CCCCCCCCN(CCCCCCCC)CCCCCCCC, for which, for the setting “x2 = 0”, the mass density is listed as 655.9 kg/m3.
Regarding `Cc1ccccc1` + CCCCCCCCN(CCCCCCCC)CCCCCCCC, the mass density (x2 = 0) was 862.2 kg/m3.
Compound `CCO` + CCCCCCCCN(CCCCCCCC)CCCCCCCC gave a mass density (x2 = 0) of 785.7 kg/m3.
On to `CCCCCCCCN(CCCCCCCC)CCCCCCCC` + Cc1ccc(C)cc1, for which the mass density runs as follows: (x1 = 0.0869) 843.7 kg/m3; (x1 = 0.1762) 834.7 kg/m3; (x1 = 0.3627) 823.1 kg/m3; (x1 = 0.4607) 819 kg/m3; (x1 = 0.5627) 815.7 kg/m3; (x1 = 0.665) 813 kg/m3. The mass density runs as follows: (x1 = 0.7195) 811.8 kg/m3; (x1 = 0.8267) 809.7 kg/m3; (x1 = 1) 806.9 kg/m3.
For the compound `CCCCCCCCN(CCCCCCCC)CCCCCCCC` + Cc1ccccc1, the mass density reads like this: (x1 = 0.1) 843.4 kg/m3; (x1 = 0.1999) 832.6 kg/m3; (x1 = 0.4999) 816.8 kg/m3; (x1 = 0.5488) 815.3 kg/m3; (x1 = 0.5993) 813.9 kg/m3; (x1 = 0.699) 811.7 kg/m3. Moreover, the mass density (x1 = 0.7496) was 810.7 kg/m3, the mass density (x1 = 0.8496) was 809 kg/m3, the mass density (x1 = 0.8993) amounted to 808.3 kg/m3 and the mass density (x1 = 1) is recorded as 806.9 kg/m3.
For the compound `CCCCCCCCN(CCCCCCCC)CCCCCCCC` + CCCCCC, the mass density came out at 681.1 kg/m3 (x1 = 0.0516); 699.3 kg/m3 (x1 = 0.0992); 714.2 kg/m3 (x1 = 0.1459); 737.8 kg/m3 (x1 = 0.2417); 763.4 kg/m3 (x1 = 0.3974); 768.6 kg/m3 (x1 = 0.441). Moreover, the mass density is, setting by setting: (x1 = 0.4861) 773.6 kg/m3; (x1 = 0.5859) 783 kg/m3; (x1 = 0.6868) 790.7 kg/m3; (x1 = 0.7689) 795.9 kg/m3; (x1 = 0.858) 800.7 kg/m3; (x1 = 0.9047) 803.1 kg/m3. Also, where the note is “x1 = 1”, the mass density stood at 806.9 kg/m3.
As to `Cc1ccc(C)cc1` + CCCCCCCCN(CCCCCCCC)CCCCCCCC, the mass density (x2 = 0) is listed as 856.6 kg/m3.
Take `CCCCCCCCN(CCCCCCCC)CCCCCCCC` + C1CCCCC1: the mass density reads like this: (x1 = 0.0488) 778.3 kg/m3; (x1 = 0.1) 782.3 kg/m3; (x1 = 0.1503) 785.6 kg/m3; (x1 = 0.1988) 788.4 kg/m3; (x1 = 0.2456) 790.6 kg/m3; (x1 = 0.2986) 792.9 kg/m3. Moreover, the mass density is recorded as 797.8 kg/m3 (x1 = 0.4459); 800.9 kg/m3 (x1 = 0.5811); 804 kg/m3 (x1 = 0.7606); 805.6 kg/m3 (x1 = 0.8867); 806.9 kg/m3 (x1 = 1).
For the compound `CCCCCCCCN(CCCCCCCC)CCCCCCCC` + CCC(=O)O, the mass density runs as follows: (x1 = 0.1009) 940.6 kg/m3; (x1 = 0.1976) 914.5 kg/m3; (x1 = 0.2481) 902.4 kg/m3; (x1 = 0.2955) 889.7 kg/m3; (x1 = 0.4007) 864.8 kg/m3; (x1 = 0.4399) 857.5 kg/m3. The mass density is, setting by setting: (x1 = 0.4803) 850.8 kg/m3; (x1 = 0.5303) 843.7 kg/m3; (x1 = 0.5704) 838.7 kg/m3; (x1 = 0.6226) 832.9 kg/m3; (x1 = 0.6671) 828.7 kg/m3; (x1 = 0.7339) 823.2 kg/m3. Under “x1 = 0.846”, the mass density is reported as 815.3 kg/m3.
The compound `CCC(=O)O` + CCCCCCCCN(CCCCCCCC)CCCCCCCC registered a mass density (x2 = 0) of 988 kg/m3.
As to `C1CCCCC1` + CCCCCCCCN(CCCCCCCC)CCCCCCCC, the mass density (x2 = 0) was found to be 774 kg/m3.
Turning to `CCCCCCCCN(CCCCCCCC)CCCCCCCC` + CCO, the mass density worked out at 798.3 kg/m3 (x1 = 0.1494); 800.2 kg/m3 (x1 = 0.1961); 802.7 kg/m3 (x1 = 0.2841); 806.4 kg/m3 (x1 = 0.6275); 806.8 kg/m3 (x1 = 0.7297); 806.9 kg/m3 (x1 = 0.7805). Moreover, the mass density (x1 = 0.8074) came out at 806.9 kg/m3, the mass density (x1 = 0.8848) is listed as 807 kg/m3 and the mass density (x1 = 1) was 806.9 kg/m3.

For the origin of these results see a compilation of properties of binary mixtures (doi:10.1021/je9601671).
